Where no end group is shown, it is not given here.
Test system: HIV-1IIIB
Experiment: HIV-1 antiviral assay (CPE reduction, MTS)
Assay type: cell-based
Details: peptide 10 micrograms per ml, 6 days post-infection

Row | Molecule | % CPE reduction in HIV-1 infected CEM-SS cells [%]
1 | Cc1cn([C@H]2C[C@H](N=[N+]=[N-])[C@@H](CO)O2)c(=O)[nH]c1=O [AZT, reference compound] | 99
2 | LEEEEEAYGWMDF-NH2 [Minigastrin I] | 0.0
